Variants at the floor of the assay are shown more often than the library holds them.
B1: TPR 5TU (parent)
chain: GGAUCUUCUCGAUCUAACAAAAAAGACAAAUCUGCCACAAAGCUUGAGAGCAUCUUCGGAUGCAGAGGCGGCAGCCUUCGGUGGCGCGAUAGCGCCAACGUUCUCAACUAUGACACGCAAAACGCGUGCUCCGUUGAAUGGAGUUUAUCAUG

Variants of: B1
Assay: polymerase ribozyme fitness, log enrichment relative to wild type (log ratio); higher = more active; in vitro selection for triplet polymerase activity
Summary of the method: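 One round of in vitro selection, in triplicate, was applied to PCR-built, transcribed mutant libraries of each subunit of a heterodimeric triplet polymerase ribozyme. The steps were annealing with a biotinylated primer, partner subunit and triplets, incubation frozen at −7 °C, gel excision of extended constructs, streptavidin-bead capture and RT-PCR. Fitness is the logarithm, base 2, of genotype enrichment over wild-type enrichment from inverse-variance-weighted replicate averages of Illumina-sequenced inputs and outputs, keeping genotypes with ≥10 input reads and ≥1 read per output.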

Variant | polymerase ribozyme fitness (log ratio)
A20C A21G G48A C54A A113C A147C | ≤ -4.2
A20C A21U G48A C51U U55A C85U U151G | ≤ -4.2
A20C A21U U55A G59C C85A G126U | -0.602
A20C A22C A39G G71A C85A G94C | ≤ -4.2
A20C A22C A60C C87U G88C U102C A147U | ≤ -4.2
A20C A22G C69G A73G U78G U102G | ≤ -4.2
A20C A22U A40G C93G C95U C105G | ≤ -4.2
A20C A22U G25A U61A A89C A97G C132U | ≤ -4.2
A20C A22U G84U A91C C116A | ≤ -4.2
A20C A23C C27G C38U C103G U145G U146C | ≤ -4.2
A20C A23C C35A C43G C93G A106G | ≤ -4.2
A20C A23G G59U C87G C149U | ≤ -4.2
A20C A24G | -4.02
A20C A24U G50C U56A C75U C76A G86A G88C C95A C108U U130C | ≤ -4.2
A20C A26C A30C U44G G50A A66C | ≤ -4.2
A20C A26C C35U C75U U90A G92A C118A A122C | ≤ -4.2
A20C A26G C38G A52C C54A C87U C93U | ≤ -4.2
A20C A26U A41C A52C C105U G140C | ≤ -4.2
A20C A26U C36U U56A C79A G92U G136U | ≤ -4.2
A20C A26U U53A C76A A107C A122U G141U | ≤ -4.2
A20C A28G A29U A40U C149G | ≤ -4.2
A20C A28G A29U G59U A64G A113C C149G | ≤ -4.2
A20C A28G C57U G58C A73U U77G C93U A106G C116G | ≤ -4.2
A20C A28U A49C U61A G92A A113G C149G | ≤ -4.2

Variant | polymerase ribozyme fitness (log ratio)
A20C A28U G48C G70A C87G A120G U135C | ≤ -4.2
A20C A28U U44A A49C G143A | ≤ -4.2
A20C A29C A52G U104C | ≤ -4.2
A20C A29C G84A A150C | ≤ -4.2
A20C A29G C75U C93G C96G A110U C129A | ≤ -4.2
A20C A29U G74C C87U C93G C96A | ≤ -4.2
A20C A30C A49C C93G C103G | ≤ -4.2
A20C A30C G100C U102G G143U U145G | ≤ -4.2
A20C A30G A52U U82C A110G C131G | ≤ -4.2
A20C A30G U53C G86A U139A A142C | ≤ -4.2
A20C A37C A40C G58C C95U | -4.12
A20C A37C G83U G84A A122C U134C G141C | ≤ -4.2
A20C A37U G59C A60U G68C G86C C118U A142G | ≤ -4.2
A20C A39C A40G G84U G88U C93A C96A | ≤ -4.2
A20C A39U G42A A91U G133U | ≤ -4.2
A20C A40C G74C A107G C131A G133U U135A | ≤ -4.2
A20C A40U U61A G92A A97C C116G G141A A150G | ≤ -4.2
A20C A41C U55C C93G C99U U102G | ≤ -4.2
A20C A41G U55C A60G G83U G84C C93U | ≤ -4.2
A20C A47C G50C G84A C93A U148A | ≤ -4.2
A20C A47G G48C G94C C95G | ≤ -4.2
A20C A47U U101A A122U | -0.358
A20C A49C G88C U127A | ≤ -4.2
A20C A52C C79G | ≤ -4.2

Variant | polymerase ribozyme fitness (log ratio)
A20C A52C G68U C87A C99U | ≤ -4.2
A20C A52U C93U C95A C96A U109A C125U | ≤ -4.2
A20C A52U U77C C87U | ≤ -4.2
A20C A60G G68A C75U A91C | ≤ -4.2
A20C A60G G88A A142U | ≤ -4.2
A20C A89C A91C A97G C105U | ≤ -4.2
A20C A89G C95U A106U C116U A138C | ≤ -4.2
A20C A98U | -1.29
A20C A113U U127A | ≤ -4.2
A20C A115U | -2.36
A20C A120G | -0.986
A20C C27U C87U G92A U101A | -1.49
A20C C32U C38A A91C C96G | ≤ -4.2
A20C C35G G48U U77C G86U C116G U148G | ≤ -4.2
A20C C36A A49U U56G A91U U146C | ≤ -4.2
A20C C36A A60C G84A G152A | ≤ -4.2
A20C C38G U61G G62U C87G A97G A110U | ≤ -4.2
A20C C43G U53A G74A G84U A107U U109G A150U | ≤ -4.2
A20C C54A C57U A66G U77G C87G C99U A106G C116A G136C | ≤ -4.2
A20C C54G C93U C108A | ≤ -4.2
A20C C54U C63U G67U G84U C108G | ≤ -4.2
A20C C54U G86C U101C U104A | ≤ -4.2
A20C C57G C105G C149A | ≤ -4.2
A20C C57U G59C G62C G124A | -0.9

Variant | polymerase ribozyme fitness (log ratio)
A20C C63U G88C C95U | ≤ -4.2
A20C C69A C85U C95G A107U | ≤ -4.2
A20C C85A A97U | -3.02
A20C C85A G126C U144A | -0.594
A20C C85G G92C A120G A121C A150G | ≤ -4.2
A20C C85U | -1.04
A20C C85U G86U C93A A119U A121G | -1.77
A20C C87A C116U | ≤ -4.2
A20C C99G | -1.06
A20C C103A A107G C149G | ≤ -4.2
A20C C105G A115U G140U | ≤ -4.2
A20C G25U C43A U56A G86A C95A A122G | ≤ -4.2
A20C G42A G68A C93U | ≤ -4.2
A20C G42A U56A A73G C93G | ≤ -4.2
A20C G42C A47C G50C U82G A107U C116U A137G A138G | ≤ -4.2
A20C G42C G50U G84A C99A | ≤ -4.2
A20C G42U C54G C95A U102G C103A | ≤ -4.2
A20C G46U G68A C76G G84A | ≤ -4.2
A20C G48A A52C U55G A66C C72G A91G A119C U144G | ≤ -4.2
A20C G48A C76G C149G | ≤ -4.2
A20C G48A G50C C95U | ≤ -4.2
A20C G50A A60G U61G C87A | ≤ -4.2
A20C G50A C76G G80C A91U A98G | ≤ -4.2
A20C G50C C54U G58C G62A G86A C125U A142C | ≤ -4.2

Variant | polymerase ribozyme fitness (log ratio)
A20C G68C G141C | ≤ -4.2
A20C G74U C108G C132A | ≤ -4.2
A20C G83C C96G | -1.83
A20C G84U | -3.03
A20C G84U C99G A106U | ≤ -4.2
A20C G92A U101G G124A C129U | -3.24
A20C G100U U104G A142G | ≤ -4.2
A20C G133A | ≤ -4.2
A20C U31G U53A U55G A115C | -2.82
A20C U44A G48A U90A C95G A137C U144G A150U | ≤ -4.2
A20C U44G U55A G74A A89C C95G U127G | ≤ -4.2
A20C U45A G46A A49G C72A G88C C116U G117A | ≤ -4.2
A20C U45G C51U C54U C69A C87U C96U U127C U139A | ≤ -4.2
A20C U45G C54U C76A A91U C114U | ≤ -4.2
A20C U45G C72A A73C A97U A119U | ≤ -4.2
A20C U53A G59A C103A G140A | ≤ -4.2
A20C U55A A89G G94C C95A C108G C123G | ≤ -4.2
A20C U55A A110G | -3.9
A20C U55G G67U C72A C85U | ≤ -4.2
A20C U56A A64C G65C U101G C132U G133U | ≤ -4.2
A20C U56A A107U | -2.71
A20C U101G C149U | -1.64
A20C U144G | 0.273
A20G A21C A47C G84C A97U U144A | ≤ -4.2

Variant | polymerase ribozyme fitness (log ratio)
A20G A21C C93A A97G | -3.83
A20G A21C U45A U78A G126A | ≤ -4.2
A20G A21G C79U C93A A98G C103U | ≤ -4.2
A20G A21U G59C C69A A98G U109A | ≤ -4.2
A20G A22C | -0.665
A20G A22C C93A | -3.38
A20G A22G U55A U90G G94A A120U | ≤ -4.2
A20G A22U C93G | -4.09
A20G A22U G70U C85G A110U A121C | ≤ -4.2
A20G A22U U78G C85U C93U G152C | ≤ -4.2
A20G A23C U144G | ≤ -4.2
A20G A23G U31C C32U U45G U53A G68C C76U C87A G92C | ≤ -4.2
A20G A24C U45G G58A A122G C131G | ≤ -4.2
A20G A24U U111A A142U G143U | ≤ -4.2
A20G A26G A47C G80A C87A C93G | ≤ -4.2
A20G A26U | -2.24
A20G A26U U31G A40G C125G U151C G152A | ≤ -4.2
A20G A28C A30G C54U A73G C93A C95U G100U C123U U127C U144C | ≤ -4.2
A20G A28U A52U G59C G94A A107C C108A U134G | ≤ -4.2
A20G A28U G42C A49C C93G C103A | ≤ -4.2
A20G A29C C43G C63A G86A U90G C116A | ≤ -4.2
A20G A29C C43G C63A G86A U90G C125U | ≤ -4.2
A20G A29C G46U C54U C96U C116A U148A | ≤ -4.2
A20G A29G U44A A47U G58U G124A | ≤ -4.2

Variant | polymerase ribozyme fitness (log ratio)
A20G A29G U111C | ≤ -4.2
A20G A29U C93A A97U U139A | ≤ -4.2
A20G A30C A66C U77A C87A A115C | ≤ -4.2
A20G A30G A41C C51A G143U | ≤ -4.2
A20G A30U A49C C69U C93U A110U A138G | ≤ -4.2
A20G A30U C63A C87U U146C | ≤ -4.2
A20G A30U G83A A110C U148C | ≤ -4.2
A20G A37G A106G A138C | -3.84
A20G A37U U55G U78G | ≤ -4.2
A20G A37U U111G | ≤ -4.2
A20G A39G A89C A97U G126A A147G | ≤ -4.2
A20G A39G G50C C85A C93A C114G C125G | ≤ -4.2
A20G A40C A41U U56A C79U G86A C87A | ≤ -4.2
A20G A40C A49C G50A G65C G68A C87U G124U | ≤ -4.2
A20G A40U A41C C75G G92C C118U A120U U151G | ≤ -4.2
A20G A40U U77C | ≤ -4.2
A20G A41C G46C U82C C95A C123U | ≤ -4.2
A20G A41G C54G G80C C93U G117A | ≤ -4.2
A20G A41G C54U U56A C93G A120G U139G | -2.99
A20G A41U G62C A91G A97U G117A C129U G136U | ≤ -4.2
A20G A49C U55A G68U G83A G84A G112A | ≤ -4.2
A20G A52C | -1.28
A20G A52C A119U A121U G143C | ≤ -4.2

Reference: the RNAGym collection of RNA variant scans (doi:10.1073/pnas.2313332121)
